# Measured values published in the supplement of paper PMC9135407.
# Where “and” joins values, the source holds several entries; their conditions need not be identical. Equal entries are not always repeated. Structures can show the parent of a compound that is named as a salt. The campaign covered roughly 5,800 compounds. About 620 (11%) showed activity.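 Rule for the calls: active = score above a cut-off or among the top three wells of a plate; in these data no inactive exceeds 0.85.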 This is a selection; strong and weak results do not stand in their true shares.
# Test system: primary human hepatic stellate cells (donor 1)
# Assay: scaled lipid accumulation score (0 = DMSO-like, 1 = nortriptyline-like); higher = stronger HSC inactivation (lipid re-accumulation), active = hit call of the paper
# Settings: 48 h
# [1] = library stock concentration: 10 mM
# [2] = library stock concentration: 1 mM
# [3] = library stock concentration: 3.33 mM
# [4] = library stock concentration: 7.2 mM
structure (smiles),measurement,setting,value
CN1C[C@H](CNC(=O)OCc2ccccc2)C[C@@H]2c3cccc4c3c(cn4C)C[C@H]21 [Metergoline],scaled lipid accumulation score,,active: 1.06
c1ccc(CCCN2CCN(CCOC(c3ccccc3)c3ccccc3)CC2)cc1,scaled lipid accumulation score,[1],inactive: ≤ -0.07 and inactive: 0.566
Clc1cccc(SC2CCNCC2)n1 [Anpirtoline hydrochloride],scaled lipid accumulation score,[1],inactive: 0.117
O=c1c2ccccc2[se]n1-c1ccccc1 [Ebselen],scaled lipid accumulation score,,active: 0.867
COc1ccc(C(=O)c2c(C)n(CCN3CCOCC3)c3ccccc23)cc1 [Pravadoline],scaled lipid accumulation score,library stock concentration: 5.3 mM,inactive: ≤ -0.006
CCOC(=O)c1ncc2[nH]c3ccc(OCc4ccccc4)cc3c2c1COC,scaled lipid accumulation score,[1],inactive: ≤ -0.006
CC(C)(N)Cc1ccccc1 [Phentermine],scaled lipid accumulation score,library stock concentration: 13.4 mM,inactive: 0.061
NP(N)(=O)NC(=O)c1ccc(F)cc1 [Flurofamide],scaled lipid accumulation score,[1],inactive: ≤ 0
NP(N)(=O)NC(=O)c1ccc(F)cc1,scaled lipid accumulation score,[1],inactive: ≤ 0
C=C(C)[C@@H]1CCC(C)=C[C@H]1c1c(OC)cc(CCCCC)cc1OC [Cannabidiol dimethyl ether],scaled lipid accumulation score,[2],inactive: ≤ 0
CN1CCc2cc3c(cc2C1O)OCO3 (stereo not drawn) [Hydrastinine hydrochloride],scaled lipid accumulation score,,inactive: ≤ 0
CN1C2CCC1CC(OC(c1ccccc1)c1ccc(Cl)cc1)C2.Cl (stereo not drawn),scaled lipid accumulation score,[1],active: 1.07
NC(=NN=Cc1ccc(-c2cccc([N+](=O)[O-])c2)o1)N[N+](=O)[O-] [ERK Inhibitor III],scaled lipid accumulation score,[3],inactive: ≤ 0
O=c1c2ccccc2[se]n1-c1ccccc1,scaled lipid accumulation score,[1],active: 1.07
CCCCCCCCCCCCCCCCSP(=O)([O-])OCC[N+](C)(C)C [thio-Miltefosine],scaled lipid accumulation score,[2],inactive: ≤ 0
CCc1c(C(=O)C(N)=O)c2c(OCC(=O)O)cccc2n1Cc1ccccc1,scaled lipid accumulation score,[3],inactive: ≤ 0
same,scaled lipid accumulation score,[1],inactive: ≤ 0
CCNCC(O)c1cccc(O)c1 (stereo not drawn) [Etilefrine hydrochloride],scaled lipid accumulation score,,inactive: ≤ 0
CCCCCC(/C=C/C=O)OO (stereo not drawn) [4-hydroperoxy 2-Nonenal],scaled lipid accumulation score,[2],inactive: 0.019
Cc1sc2c(c1C)C(c1ccc(Cl)cc1)=N[C@@H](CC(=O)Nc1ccc(O)cc1)c1nnc(C)n1-2,scaled lipid accumulation score,[3],inactive: ≤ -0.009
same,scaled lipid accumulation score,[1],inactive: 0.002
CS(=O)(=O)O.Oc1ccc2c3c1O[C@H]1c4oc5ccccc5c4C[C@@]4(O)C(C2)N(CC2CC2)CC[C@]314 [Naltriben mesylate],scaled lipid accumulation score,[1],active: 1.27
Cc1o[nH]c(=O)c1CC(N)C(=O)O (stereo not drawn) [(?)-AMPA hydrobromide],scaled lipid accumulation score,[1],inactive: ≤ -0.07
CC[C@H]1CN2CCc3cc(OC)c(OC)cc3C2C[C@@H]1CC1NCCc2cc(OC)c(OC)cc21.Cl.Cl (stereo partly drawn) [Emetine],scaled lipid accumulation score,library stock concentration: 3.6 mM,active: 1.37
C[C@@H]1O[C@@H](O[C@@H]2C[C@@H](O)[C@]3(CO)[C@H]4[C@H](O)C[C@]5(C)[C@@H](C6=CC(=O)OC6)CC[C@]5(O)[C@@H]4CC[C@]3(O)C2)[C@H](O)[C@H](O)[C@H]1O [Ouabain],scaled lipid accumulation score,[1],active: 1
COc1ccc(C(CN(C)C)C2(O)CCCCC2)cc1 (stereo not drawn) [Venlafaxine hydrochloride],scaled lipid accumulation score,[1],inactive: 0.155
COc1ccc(C(CN(C)C)C2(O)CCCCC2)cc1 (stereo not drawn) [Venlafaxine],scaled lipid accumulation score,[3],inactive: ≤ 0
same,scaled lipid accumulation score,[4],inactive: 0.227
same,scaled lipid accumulation score,[1],inactive: 0.127 and inactive: 0.164
COc1ccc(C(CN(C)C)C2(O)CCCCC2)cc1 (stereo not drawn),scaled lipid accumulation score,[1],inactive: ≤ 0
COc1ccc(C(CN(C)C)C2(O)CCCCC2)cc1 (stereo not drawn) [Venlafaxine HCl],scaled lipid accumulation score,[4],inactive: 0.007
O=C(O)CCC(CP(=O)(O)O)C(=O)O (stereo not drawn) [PMPA (NAALADase inhibitor)],scaled lipid accumulation score,[1],inactive: ≤ -0.006
CN1[C@H]2C[C@H](OC(=O)[C@H](CO)c3ccccc3)C[C@@H]1[C@@H](O)C2 [Anisodamine],scaled lipid accumulation score,[1],inactive: 0.076
CN1[C@H]2C[C@H](OC(=O)[C@H](CO)c3ccccc3)C[C@@H]1[C@@H](O)C2,scaled lipid accumulation score,[1],inactive: ≤ 0
CC(C)(C)OC(=O)c1ncn2c1[C@@H]1CCCN1C(=O)c1c(Br)cccc1-2 [Bretazenil],scaled lipid accumulation score,[1],inactive: 0.046
CN(C)C(=O)Oc1cccc([N+](C)(C)C)c1 [Neostigmine bromide],scaled lipid accumulation score,,inactive: ≤ 0
same,scaled lipid accumulation score,library stock concentration: 6.6 mM,inactive: 0.003
same,scaled lipid accumulation score,[1],inactive: ≤ 0 and inactive: ≤ -0.055
Cc1onc(O)c1C[C@H](N)C(=O)O,scaled lipid accumulation score,[1],inactive: ≤ 0
"CNC(=O)Oc1ccc2c(c1)[C@]1(C)CCN(C)[C@@H]1N2C [Eserine sulfate, physostigmine sulfate]",scaled lipid accumulation score,,inactive: ≤ 0
CNC(=O)Oc1ccc2c(c1)[C@]1(C)CCN(C)[C@@H]1N2C [Physostigmine salicylate],scaled lipid accumulation score,library stock concentration: 4.8 mM,inactive: ≤ -0.001
same,scaled lipid accumulation score,[1],inactive: ≤ 0
CNC(=O)Oc1ccc2c(c1)[C@]1(C)CCN(C)[C@@H]1N2C [(-)-Physostigmine],scaled lipid accumulation score,[1],inactive: ≤ -0.07
